Reference: PubChem BioAssay AID624171 (National Center for Advancing Translational Sciences (NCATS), 2012)
Where “and” joins values, the source holds several entries; their conditions need not be identical. Equal values may be shown once. Among all 410,000 compounds or so, about 1,200 (0.29%) were called active. The shares of active, inactive and inconclusive entries below differ from those in the screen. Calls follow the shape of the dose curve; as a rule, active = well fitted activation curve with a large enough effect; inconclusive = small, poorly fitted or top-dose-only effect; inactive = flat fitted curve, though single readings scatter. Potencies beside an inconclusive call are fits to weak or partial responses and may not hold up.

Experiment: qHTS of Nrf2 Activators; also: nearly all actives have a fitted effect of over 65% in size; as to activation: % of control where 0% means no effect
Details: AREc32 ARE-luciferase reporter (MCF7-derived line), luminescence, 24 h; activation: at 46.1 µM (top of the series)
Method in brief: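 Steps: seed AREc32_Fluc cells (1000/well, 5% FBS OPTI-MEM); incubate overnight at 37 deg C; add 23 nL compound; incubate 24 hr; add Steady-Glo; hold 30 min RT; read luminescence.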
Potency is read from the fitted curve at half-maximal effect; tags tell the direction and shape of the fitted curve.

Potency, active:
CCCn1c(CNc2ccccc2O)nc2ccccc21 14.1 µM
COc1cc(NC(=S)Nc2ccccn2)c(OC)cc1Cl 3.98 µM
CCn1c(SCC(=O)c2c[nH]c3ccccc23)nnc1-c1cccs1 11.2 µM
COc1ccccc1C1CC(c2cccs2)=Nc2ccccc2S1 (stereo not given) 17.8 µM
Cc1cc(C)n(S(=O)(=O)/C=C/c2ccccc2)n1 3.16 µM
COc1cc(/C=N/N=C2/C(=O)Nc3ccccc32)cc(OC)c1O 11.2 µM
Cc1sc2ncnc(SCc3ccco3)c2c1C 3.16 µM
CN1C/C(=C\c2ccc(N3CCOCC3)cc2)C(=O)/C(=C/c2ccc(N3CCOCC3)cc2)C1 11.2 µM

Potency, inconclusive:
O=C1CC(c2cccc(O)c2)Oc2ccccc21 (stereo not given) 15.8 µM [activator, single point]
O=C(CCNc1cc(Cl)cc(Cl)c1)c1ccco1 17.8 µM [activator, single point]
O=C(/C=C/c1ccc(O)c([N+](=O)[O-])c1)c1ccc2ccccc2c1 35.5 µM [activator, single point]
O=C1CC(c2ccco2)Sc2ccccc2N1 (stereo not given) 35.5 µM [activator, single point]
O=C1N/C(=C\c2ccsc2)C(=O)N1Cc1ccc(F)cc1 1.58 µM [activator, full curve, poor fit]
O=C1NC(=Nc2ccccc2)/C(=C/c2ccco2)S1 3.98 µM [activator, partial curve, poor fit]
CC1(C)C(=O)Nc2ccccc2N1C(=O)Cn1ncc(Cl)c(Cl)c1=O 11.2 µM [activator, partial curve, poor fit]
Nc1nc(Nc2cccc(F)c2)nc(NCc2ccco2)c1[N+](=O)[O-] 3.55 µM [activator, partial curve, poor fit]
c1ccc(N2CC3CCc4ccccc4C3=N2)cc1 (stereo not given) 2.82 µM [activator, full curve, poor fit]
Cc1nn(C)cc1C1C(C#N)=C(N)N(c2ccc(F)c([N+](=O)[O-])c2)C2=C1C(=O)CCC2 (stereo not given) 25.1 µM [activator, single point]
CC(=C\c1ccco1)/C=C(\C#N)C(=O)NCCc1c[nH]c2ccccc12 11.2 µM [activator, partial curve, poor fit]
Cc1noc(C)c1C(=O)Nc1nc2ccc(F)cc2s1 11.2 µM [activator, partial curve, poor fit]
O=C(/C=C/Nc1ccccc1F)c1ccc(Br)cc1 3.16 µM [activator, full curve, poor fit]
Cn1c(NCCc2ccncc2)nc2cc(-c3cccc(C(F)(F)F)c3)sc2c1=O 3.16 µM [activator, partial curve, poor fit]
Cc1ccc(-c2nn3c(C)nnc3c3ccccc23)cc1S(=O)(=O)NC(C)(C)CO 20 µM [activator, single point] and 17.8 µM [activator, single point]
O=C(NC1CCC(O)CC1)c1cc(-c2ccco2)nc2ccccc12 (stereo not given) 20 µM [activator, single point]
COc1ccc(C(=O)CSc2nnc(-c3ccco3)c(-c3ccco3)n2)cc1 3.55 µM [activator, single point]
CC(=O)Oc1ccc(C2=Cc3ccc(OC(C)=O)cc3OC2C)cc1 (stereo not given) 14.1 µM [activator, partial curve, poor fit]
O=C(CCc1ccc(O)c(O)c1)N/N=C/c1ccc2c(c1)OCO2 20 µM [activator, single point]
O=C1C=CC(=O)C(C2=C3C(=O)N(CCc4ccccc4)CC(=O)N3CCC2)=C1 14.1 µM [activator, single point]
O=CNc1cc(-c2ccoc2)cn2c(-c3ccc(F)cc3)cnc12 11.2 µM [activator, partial curve]
Cn1c(CC2C(=O)Nc3ccc(Br)cc32)nc2ccccc2c1=O (stereo not given) 3.16 µM [activator, full curve, poor fit]
O=C(CCN1C(=O)/C(=C/c2ccccc2)SC1=S)NCCCN1CCOCC1 35.5 µM [activator, single point]
S=c1[nH]nc(-c2ccco2)n1/N=C/c1ccc(Br)s1 10 µM [activator, partial curve]
COc1ccc(N(CCCN2C(=O)c3cccc4cccc(c34)C2=O)C(=O)c2cccnc2)cc1 1.78 µM [activator, full curve, poor fit]
Brc1cc2c(cc1/C=N/Nc1nc3ccccc3s1)OCO2 2.24 µM [activator, full curve, poor fit]
Cc1nn(C)c(C(=O)NC(=S)Nc2ccccc2Br)c1Cl 7.08 µM [activator, partial curve, poor fit]
CC(C)(C)c1nnc2sc(SCC(=O)N3CCCCC3)nn2c1=O 31.6 µM [activator, single point]
Cn1cc(Br)c(C(=O)Nc2nccs2)n1 14.1 µM [activator, single point]
Brc1ccc(N=Nc2ccc3ccccc3n2)cc1 3.98 µM [activator, partial curve]
COc1ccc(C(=O)C=Cc2ccc(OCc3ccccc3)c(OC)c2)cc1OC 22.4 µM [activator, single point]
CCOC(=O)Cc1cc(=O)[nH]c(Nc2nc3ccccc3o2)n1 17.8 µM [activator, single point]
CC(C)c1ccc2oc(-c3cc(NC(=O)c4cccs4)ccc3Cl)nc2c1 3.16 µM [activator, partial curve, poor fit]
O=C(c1nnsc1S(=O)(=O)c1ccc(Cl)cc1)N1CCOCC1 3.55 µM [activator, single point]
Cn1c(CCN2CCCCC2)nc2cc(NS(=O)(=O)c3ccc(F)cc3)ccc21 35.5 µM [activator, single point]
COc1cc(NC(=O)c2cc(-c3ccco3)on2)cc(OC)c1OC 11.2 µM [activator, partial curve, poor fit]
CCc1nnc(SCC(=O)N(C)c2ccccc2)c2cc3sccc3n12 31.6 µM [activator, single point]
CN(C)c1ccc(/C=C/C(=O)c2ccc(O)cc2)cc1[N+](=O)[O-] 5.62 µM [activator, single point]
CCCCCCC(=O)N(O)C1CC(=O)N(c2ccc(Cl)cc2)C1=O (stereo not given) 15.8 µM [activator, single point]
Cc1cccc(CS(=O)(=O)c2ncc(Cl)c(C(=O)Nc3ccc(F)cc3)n2)c1 3.55 µM [activator, single point]
O=C(Nc1ccccn1)c1cc2ccccc2o1 1.12 µM [activator, full curve, poor fit]
CC(C)c1nnc(NC(=O)c2nc(S(=O)(=O)Cc3ccc(F)cc3)ncc2Cl)s1 20 µM [activator, single point]
Cc1ccc(-c2nc3ccccn3c2Nc2c(C)cccc2C)o1 15.8 µM [activator, single point]
BrC(=C\c1ccccc1)/C=N/N1CCN(Cc2ccccc2)CC1 28.2 µM [activator, single point]

activation, inactive:
CC1=C(C(=O)N2CCOCC2)CC(CC(=O)NCc2cccc3ccccc23)C(=O)N1Cc1ccccc1 (stereo not given) 0.393%
COc1ccc(NC(=O)c2ccc(-c3nc(CSc4ccccc4)c(C)o3)cc2)c(OC)c1 0.111%
O=C(CCc1nnc2n(Cc3ccccc3Cl)c(=O)c3ccccc3n12)Nc1ccccc1 0.356%
CCc1ccc(NC(=O)c2sc3nc(C)cc(C)c3c2NC(=O)c2ccccc2)cc1 -2.33%
O=C(CN1CCCCCC1)Nc1ccc(Br)cn1 0.921%
CCN(CC)CCCNC(=O)C(C)n1nc(C)n2c(cc3occc32)c1=O (stereo not given) 0.0869%
Cc1cccc(NCc2ccc(O)c3ncccc23)c1C 3.53%
Cc1cccc(C(=O)N2CCN(c3ncnc4c3cnn4-c3ccccc3)CC2)c1 2.78%
OCCC1CN(Cc2nc(-c3ccc(F)cc3)cs2)CCN1CCc1ccccc1 (stereo not given) 2.91%
CCOC(=O)C1=C(C)NC2=C(C(=O)CCC2)C1c1cccnc1 (stereo not given) 0.226%
CC1(C)CC(=O)C2=C(C1)Nc1ccccc1NC2c1cccc(F)c1 (stereo not given) -0.687%
O=S(=O)(NCC(c1ccco1)S(=O)(=O)c1cccs1)c1ccc(F)c(C(F)(F)F)c1 (stereo not given) 26.6%
Cc1ccc([C@H]2Nc3ccc(S(=O)(=O)Nc4cccc(Cl)c4C)cc3[C@H]3C=CC[C@H]32)cc1 -0.412%
O=C(O)CCCN1C(=O)C2C3CCC(C3)C2C1=O (stereo not given) 0.528%
COc1ccc(NC(=O)c2ccccc2C)cc1 0.05% [at 9.22 µM]
COCCn1nnnc1C(c1cc2cc(C)ccc2[nH]c1=O)N1CCc2ccccc21 (stereo not given) 0.443%
O=C(c1ccccc1)N1CCN(c2ncnc3sc4c(c23)CCC4)CC1 0.578%
Cc1ccc(C)c(S(=O)(=O)NCCC(=O)N2CCCC(C(N)=O)C2)c1 (stereo not given) -0.174%
